{"source": "PubChem BioAssay AID2675", "about": "(National Center for Advancing Translational Sciences (NCATS), 2010)", "note": "Screen size: about 280,000 compounds; about 100 (0.036%) were called active. Inconclusive means that the source gave no clear call. Such entries were picked first, then a sample of the others. The call rests on the fitted dose curve; in most records, active means well fitted inhibition curve with a large enough effect in the signal ratio, with a control signal flat (not every such curve was filed as active); inconclusive means small, poorly fitted or top-dose-only effect, or effect the other way, or a change in a side signal; inactive means no such curve, though single readings can be large or run the other way; the % refers to the signal ratio. Potencies beside an inconclusive call are fits to weak or partial responses and may not hold up. “Side channel” marks fits to a control or component signal instead of the main read-out. On the % scale 0 is the no-effect control and ±100 the full control effect; potency means the concentration at half of the fitted maximal effect; tags describe the fitted curve by direction and shape or compound fluorescence and quenching."}
{"target": "Muscleblind-like protein 1 (Homo sapiens) (UniProt Q9NR56)", "sequence (Q9NR56 whole entry, looked up)": "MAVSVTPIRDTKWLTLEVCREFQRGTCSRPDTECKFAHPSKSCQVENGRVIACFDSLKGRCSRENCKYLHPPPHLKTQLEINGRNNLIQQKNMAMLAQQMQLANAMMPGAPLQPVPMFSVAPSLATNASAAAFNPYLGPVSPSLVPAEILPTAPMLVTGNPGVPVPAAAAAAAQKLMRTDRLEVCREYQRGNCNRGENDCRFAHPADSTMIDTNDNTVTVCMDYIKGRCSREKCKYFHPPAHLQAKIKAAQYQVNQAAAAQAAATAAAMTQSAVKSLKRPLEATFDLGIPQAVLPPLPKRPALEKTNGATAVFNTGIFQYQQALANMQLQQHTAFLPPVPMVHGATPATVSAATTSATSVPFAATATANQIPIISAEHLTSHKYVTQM", "test": "qHTS Assay for Inhibitors of MBNL1-poly(CUG) RNA binding", "conditions": "TR-FRET MBNL1-His/biotin-(CUG)12 binding, 665/545 ratio; activity change, negative = inhibition: at 57.5 µM (top of the series)", "in_short": "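His-tagged MBNL1 binding to biotinylated (CUG)12 RNA was measured by TR-FRET using terbium anti-His antibody (0.055 ng/ul final) and streptavidin-XL665 (5 nM final). Compounds were titrated 92 nM to 58 uM; 60 min at room temperature.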"}
{"smiles": "CCCN1c2cccc3cccc(c23)S1(=O)=O", "Potency": "inconclusive: 22.4 µM [quencher, side channel, partial curve]"}
{"smiles": "Cc1c(-c2cccc(NC(=O)c3ccco3)c2)nc2ncccn12", "Potency": "inconclusive: 17.8 µM [quencher, side channel, partial curve]"}
{"smiles": "COCCCn1c(N)c(-c2nc3ccccc3n2C)c2nc3ccccc3nc21", "Potency": "inconclusive: 20 µM [quencher, partial curve]"}
{"smiles": "Cc1ccccc1COc1ccc(/C=C(\\C#N)C(N)=O)cc1", "activity change, negative = inhibition": "inactive: 7.69%"}
{"smiles": "CCCOc1ccccc1/C=C1\\SC(N2CCCCC2)=NC1=O", "activity change, negative = inhibition": "inactive: 13.3%"}
{"smiles": "O=C(CN1C(=O)/C(=C/c2ccccc2Cl)SC1=S)NC1CCS(=O)(=O)C1", "note": "(stereo not given)", "Potency": "inconclusive: 14.1 µM [quencher, side channel, partial curve]"}
{"smiles": "O=c1c2c(-c3ccc([N+](=O)[O-])cc3)csc2nc2n1CCC2", "Potency": "inconclusive: 0.631 µM [quencher, side channel, full curve]"}
{"smiles": "Cc1cc(N)n(-c2ccc(S(N)(=O)=O)cc2[N+](=O)[O-])n1", "Potency": "inconclusive: 17.8 µM [quencher, side channel, partial curve]"}
{"smiles": "O=C(c1ccncc1)c1ccc([N+](=O)[O-])cc1", "Potency": "inconclusive: 7.94 µM [quencher, side channel, partial curve]"}
{"smiles": "COc1ccc(/C=C/C(=O)NCC(=O)N/N=C/c2cc(Br)ccc2OC)cc1", "activity change, negative = inhibition": "inactive: 12.6%"}
{"smiles": "O=C(O)CNc1ncccc1[N+](=O)[O-]", "Potency": "inconclusive: 8.91 µM [quencher, side channel, partial curve]"}
{"smiles": "COc1ccccc1CNC(=O)CSc1ccc(-c2ccccn2)nn1", "activity change, negative = inhibition": "inactive: -3.88%"}
{"smiles": "Cc1cccc(C)c1OCC(=O)NC1CC1", "activity change, negative = inhibition": "inactive: 6.88%"}
{"smiles": "Cc1cc(=O)[nH]c(SCC(=O)NCC2CCCO2)n1", "note": "(stereo not given)", "activity change, negative = inhibition": "inactive: -2.97%"}
{"smiles": "Cc1cc([N+](=O)[O-])cc([N+](=O)[O-])c1NCC(C)C", "Potency": "inconclusive: 12.6 µM [quencher, side channel, partial curve, poor fit]"}
{"smiles": "COc1cc(OC)c(-n2cc(-c3ccc(OC)c(OC)c3)[nH]c2=S)cc1Cl", "activity change, negative = inhibition": "inactive: 3.23%"}
{"smiles": "Cc1ccc2[nH]c(=O)c(CN(C(=O)c3cccc([N+](=O)[O-])c3)C(C)C)cc2c1", "Potency": "inconclusive: 44.7 µM [quencher, side channel, partial curve, poor fit]"}
{"smiles": "COc1cccc(N2C(=O)C(O)=C(C(C)=O)C2c2ccc(OC)c(OC)c2)c1", "note": "(stereo not given)", "Potency": "inconclusive: 35.5 µM [quencher, side channel, single point]"}
{"smiles": "N=c1c(C(=O)NCC2CCCO2)cc2c(=O)n3ccccc3nc2n1Cc1ccc(F)cc1", "note": "(stereo not given)", "Potency": "inconclusive: 5.01 µM [quencher, side channel, partial curve]"}
{"smiles": "OCCC1CN(Cc2cc(F)ccc2-n2cccn2)CCN1C1CCCC1", "note": "(stereo not given)", "activity change, negative = inhibition": "inactive: -9.33%"}
{"smiles": "O=[N+]([O-])c1ccc(N=Nc2c(Cl)cc(O)cc2Cl)cc1", "Potency": "inconclusive: 25.1 µM [quencher, partial curve]"}
{"smiles": "CCOC(=O)CN(C(=O)CNC(=O)c1cccs1)C(C(=O)NC1CCCCC1)c1cccs1", "note": "(stereo not given)", "Potency": "inconclusive: 0.891 µM [quencher, side channel, single point]"}
{"smiles": "NC(=O)CCC(=O)N1CCCC(C(=O)c2ccc3c4c(cccc24)CC3)C1", "note": "(stereo not given)", "Potency": "inconclusive: 12.6 µM [quencher, side channel, partial curve]"}
{"smiles": "COC(=O)C1=C(CSc2nncn2C)NC(=O)NC1c1cc(C)ccc1C", "note": "(stereo not given)", "Potency": "inconclusive: 39.8 µM [quencher, side channel, single point]"}
{"smiles": "CCCOc1ccc(CNC(=S)Nc2ccccc2)cc1Cl", "activity change, negative = inhibition": "inactive: -6.49%"}
{"smiles": "O=C(/C=C/c1ccco1)NC(=S)NNC(=O)c1ccco1", "Potency": "inconclusive: 39.8 µM [quencher, side channel, single point]"}
{"smiles": "CCC(C)NS(=O)(=O)c1ccc(NC(=O)c2ccc([N+](=O)[O-])cc2Cl)cc1", "note": "(stereo not given)", "Potency": "inconclusive: 50.1 µM [quencher, side channel, partial curve]"}
{"smiles": "COc1ccc(/C=C(\\C#N)C(=O)OCC(=O)N2CC(C)OC(C)C2)cc1", "note": "(stereo not given)", "Potency": "inconclusive: 44.7 µM [quencher, side channel, partial curve, poor fit]"}
{"smiles": "CCC(C(=O)OC)n1cnc2scc(-c3ccc(C)cc3)c2c1=O", "note": "(stereo not given)", "activity change, negative = inhibition": "inactive: 2.27%"}
{"smiles": "CCn1c(O)c(N=NC(=O)CNc2cccc(C)c2)c2ccccc21", "Potency": "inconclusive: 31.6 µM [quencher, side channel, partial curve]"}
{"smiles": "COc1cc2[nH]c(=O)n(CCC(=O)N3CCc4ccccc4C3)c(=O)c2cc1OC", "activity change, negative = inhibition": "inactive: -2.17%"}
{"smiles": "O=C(NC1CCCCC1)c1ccc([N+](=O)[O-])o1", "Potency": "inconclusive: 14.1 µM [quencher, side channel, partial curve]"}
{"smiles": "O=Cc1cnc(N2CCCCC2)s1", "Potency": "inconclusive: 28.2 µM [quencher, side channel, single point]"}
{"smiles": "COC(=O)CNc1c(-c2ccccn2)nc2ccc(Br)cn12", "Potency": "inconclusive: 35.5 µM [quencher, side channel, single point]"}
{"smiles": "O=c1oc2c(CN3CCOCC3)c(O)c(Cl)cc2c2c1CCC2", "Potency": "inconclusive: 14.1 µM [quencher, side channel, partial curve]"}
{"smiles": "CC(C)c1ccc(NC(=O)COC(=O)[C@H](CCC(N)=O)NC(=O)c2ccc(F)cc2)cc1", "Potency": "inconclusive: 1.26 µM [fluorescent, side channel, partial curve]"}
{"smiles": "O=C(CC1CC2CCC1C2)Nc1nc(-c2ccccn2)cs1", "note": "(stereo not given)", "activity change, negative = inhibition": "inactive: 7.46%"}
{"smiles": "COc1ccc(N2CCN(C(=O)c3ccc(COc4ccc([N+](=O)[O-])cc4)o3)CC2)cc1", "Potency": "inconclusive: 31.6 µM [quencher, side channel, single point]"}
{"smiles": "COc1ccc(N(C(C)C(=O)N/N=C/c2cc(Br)c(C)o2)S(C)(=O)=O)cc1", "note": "(stereo not given)", "Potency": "inconclusive: 28.2 µM [quencher, side channel, partial curve]"}
{"smiles": "N=c1sccn1CC(=O)Nc1ccccc1-c1ccccc1", "Potency": "inconclusive: 63.1 µM [inhibitor, partial curve]"}
